Assay results from the antibiotic and cytotoxicity screens of Wong et al. (2023).
Some of the results follow.

Each molecule was assayed on HepG2 (assay: cytotoxicity call (relative viability < 0.9)). Conditions: 10 µM.
`Cc1noc(C)c1NC(=O)N(C)C[C@H]1Oc2ccc(NS(=O)(=O)c3ccccc3)cc2CC(=O)N([C@H](C)CO)C[C@H]1C` was tested, and the cytotoxicity call was “inactive”.
In the case of `CO[C@@H]1CN(C)C(=O)c2ccc(NC(C)=O)cc2OC[C@H](C)N(S(=O)(=O)c2cn(C)cn2)C[C@H]1C`, the cytotoxicity call is reported as “inactive”.
`COc1ccc(NC(=O)Nc2ccc3c(c2)C(=O)N([C@H](C)CO)C[C@@H](C)[C@H](CN(C)Cc2ccccc2)OCCCC[C@H](C)O3)cc1` was tested, and the cytotoxicity call was “active”.
In the case of `C[C@H]1CN([C@@H](C)CO)C(=O)c2cc(NC(=O)Nc3cccc4ccccc34)ccc2O[C@@H]1CN(C)CC1CCCCC1`, the cytotoxicity call is reported as “inactive”.
`COc1ccc(S(=O)(=O)Nc2cccc3c2O[C@@H](CN(C)CC2CC2)[C@@H](C)CN([C@@H](C)CO)C3=O)cc1` was tested, and the cytotoxicity call was “inactive”.
`CCOC(=O)N(C)C[C@@H]1OCc2cnnn2CCCC(=O)N([C@H](C)CO)C[C@H]1C` was tested, and the cytotoxicity call was “inactive”.
For `O=C(C[C@@H]1CC=CCC[C@H](Cc2ccc(F)cc2)C(=O)OCCNC1=O)N[C@@H](CO)Cc1ccccc1`, the cytotoxicity call was “inactive”.
With `O=C(CN1CCOCC1)NCC[C@@H]1CC[C@@H](NC(=O)Cc2ccccn2)[C@@H](CO)O1` the cytotoxicity call was “inactive”.
`COc1ccc(NC(=O)N(C)C[C@H]2OCCCC[C@H](C)Oc3ccc(NS(=O)(=O)c4ccc(Cl)cc4)cc3C(=O)N([C@H](C)CO)C[C@@H]2C)cc1` was tested, and the cytotoxicity call was “inactive”.
In the case of `CCS(=O)(=O)Nc1ccc2c(c1)C(=O)N(C)[C@@H]1CC[C@@H](CC(=O)NCCCN3CCOCC3)O[C@@H]1CO2`, the cytotoxicity call is reported as “inactive”.
For `C[C@H](CO)N1C[C@H](C)[C@@H](CN(C)C(=O)Nc2ccc3c(c2)OCO3)OCc2cn(nn2)CCCC1=O`, the cytotoxicity call was “inactive”.

The molecules below were run on S. aureus RN4220 (assay: growth inhibition call (relative growth <= 0.2)). Conditions: 50 µM.
For `OC[C@H]1CC[C@@H]2O[C@H](CCc3ccc(C#CCc4ccccc4)cc3)[C@H](n3cc(-c4ccccc4)nn3)C[C@@H]2O1`, the growth inhibition call was “inactive”.
In the case of `O=C(C[C@@H]1CC=CC[C@@H](NC(=O)OCC2c3ccccc3-c3ccccc32)C(=O)OC[C@@H](Cc2ccccc2)NC1=O)N[C@@H](CO)Cc1ccccc1`, the growth inhibition call is reported as “inactive”.
`CC(=O)NCCCC[C@@H]1NC(=O)[C@@H]2C[C@H](C(=O)O)[C@H](c3ccc(O)cc3)N2C1=O` was tested, and the growth inhibition call was “inactive”.
`CC(C)NC(=O)Nc1ccc2c(c1)C(=O)N([C@@H](C)CO)C[C@@H](C)[C@@H](CN(C)Cc1ccc(Cl)c(Cl)c1)OCCCC[C@@H](C)O2` was tested, and the growth inhibition call was “inactive”.
With `CN(C)CC(=O)N[C@H]1CC[C@@H](CCNC(=O)C2CC2)O[C@H]1CO` the growth inhibition call was “inactive”.
With `COc1ccc(NC(=O)Nc2ccc3c(c2)CC(=O)N([C@@H](C)CO)C[C@H](C)[C@@H](CN(C)S(C)(=O)=O)O3)cc1` the growth inhibition call was “inactive”.
`Cc1noc(C)c1NC(=O)Nc1ccc2c(c1)CC(=O)N([C@@H](C)CO)C[C@@H](C)[C@H](CN(C)S(=O)(=O)c1cn(C)cn1)O2` was tested, and the growth inhibition call was “inactive”.
With `C[C@@H]1CN([C@@H](C)CO)C(=O)c2cc(NC(=O)Cc3cn(C)c4ccccc34)ccc2O[C@@H]1CN(C)C(=O)Nc1ccc(C(F)(F)F)cc1` the growth inhibition call was “inactive”.
With `CC(=O)Nc1cccc(NC(C)=O)n1` the growth inhibition call was “inactive”.
For `C=CCC[C@@H](Cc1ccc(F)cc1)C(=O)OC[C@@H](Cc1ccccc1)NC(=O)[C@H](CC=C)CC(=O)N(CCO)Cc1ccccc1`, the growth inhibition call was “inactive”.
In the case of `C[C@H]1CCCCO[C@@H](CN(C)C(=O)Nc2ccc(F)cc2)[C@@H](C)CN([C@@H](C)CO)C(=O)c2cc(NC(=O)Cc3ccccc3)ccc2O1`, the growth inhibition call is reported as “inactive”.
In the case of `C[C@@H]1CCCCO[C@H](CN(C)S(=O)(=O)c2ccc(Cl)cc2)[C@H](C)CN([C@@H](C)CO)C(=O)c2cc(NC(=O)Nc3ccccc3)ccc2O1`, the growth inhibition call is reported as “inactive”.
`Cc1ccc(NC(=O)Nc2cc(C(F)(F)F)ccc2F)cc1Nc1ccc2c(c1)NC(=O)/C2=C\c1ccc[nH]1` was tested, and the growth inhibition call was “inactive”.
In the case of `Cc1noc(C)c1NC(=O)N[C@@H]1C=C[C@@H](CC(=O)N2CCN(C)CC2)O[C@H]1CO`, the growth inhibition call is reported as “inactive”.
In the case of `C[C@@H]1CCCCO[C@@H](CN(C)C(=O)Cc2ccccc2)[C@@H](C)CN([C@@H](C)CO)C(=O)c2cc(NS(=O)(=O)c3cccs3)ccc2O1`, the growth inhibition call is reported as “inactive”.
With `C[C@@H]1CCCCO[C@@H](CN(C)Cc2ccc(C(=O)Nc3ccccc3N)cc2)[C@@H](C)CN([C@H](C)CO)C(=O)c2cc(NC(=O)Nc3ccc4c(c3)OCO4)ccc2O1` the growth inhibition call was “inactive”.
In the case of `C[C@@H]1CN([C@H](C)CO)S(=O)(=O)c2ccc(C3=CCCC3)cc2O[C@@H]1CN(C)S(=O)(=O)c1cn(C)cn1`, the growth inhibition call is reported as “inactive”.
In the case of `Cc1noc(C)c1S(=O)(=O)Nc1ccc2c(c1)CC(=O)N([C@@H](C)CO)C[C@H](C)[C@H](CN(C)Cc1ccncc1)O2`, the growth inhibition call is reported as “inactive”.
In the case of `Cc1noc(C)c1NC(=O)Nc1ccc2c(c1)C(=O)N([C@@H](C)CO)C[C@@H](C)[C@H](CN(C)Cc1ccc(C(=O)O)cc1)OCCCC[C@@H](C)O2`, the growth inhibition call is reported as “inactive”.
For `Cc1noc(C)c1S(=O)(=O)Nc1cccc2c1O[C@@H](CN(C)C(=O)NC1CCCCC1)[C@@H](C)CN([C@@H](C)CO)C2=O`, the growth inhibition call was “inactive”.
For `C[C@H]1CNCCO1`, the growth inhibition call was “inactive”.
`COc1ccc(S(=O)(=O)N(C)C[C@@H]2Oc3ccc(NS(=O)(=O)c4ccccc4)cc3C(=O)N([C@@H](C)CO)C[C@H]2C)cc1` was tested, and the growth inhibition call was “inactive”.
For `NCCc1cc2nc(-c3ccncc3)ccn2n1`, the growth inhibition call was “inactive”.
For `COc1ccccc1CNC(=O)C[C@@H]1CC[C@H]2[C@@H](COC[C@H](O)CN2C(=O)Nc2ccc(Cl)cc2)O1`, the growth inhibition call was “inactive”.
With `O=C(C[C@@H]1C[C@H]2c3cc(NC(=O)C4CCOCC4)ccc3O[C@H]2[C@H](CO)O1)NCc1ccc(Cl)cc1` the growth inhibition call was “inactive”.
With `C[C@@H]1CCCCO[C@@H](CN(C)Cc2ccc3c(c2)OCO3)[C@@H](C)CN([C@@H](C)CO)C(=O)c2cc(NC(=O)Cc3ccccc3)ccc2O1` the growth inhibition call was “inactive”.
With `C[C@@H]1CN([C@H](C)CO)C(=O)Cc2cc(NC(=O)CCN3CCOCC3)ccc2O[C@@H]1CN(C)Cc1ccc2c(c1)OCO2` the growth inhibition call was “inactive”.
`COc1ccc(S(=O)(=O)N(C)C[C@@H]2Oc3ccc(NC(=O)CCC(F)(F)F)cc3CC(=O)N([C@H](C)CO)C[C@H]2C)cc1` was tested, and the growth inhibition call was “inactive”.
With `C[C@H](CO)N1C[C@H](C)[C@H](CN(C)Cc2ccc(C(=O)O)cc2)OCCCC[C@H](C)Oc2ccc(NC(=O)CCC(F)(F)F)cc2C1=O` the growth inhibition call was “inactive”.
With `Cc1noc(C)c1NC(=O)N(C)C[C@H]1Oc2ccc(NS(=O)(=O)c3ccccc3)cc2CC(=O)N([C@H](C)CO)C[C@H]1C` the growth inhibition call was “inactive”.
For `CO[C@@H]1CN(C)C(=O)c2ccc(NC(C)=O)cc2OC[C@H](C)N(S(=O)(=O)c2cn(C)cn2)C[C@H]1C`, the growth inhibition call was “inactive”.
`COc1ccc(NC(=O)Nc2ccc3c(c2)C(=O)N([C@H](C)CO)C[C@@H](C)[C@H](CN(C)Cc2ccccc2)OCCCC[C@H](C)O3)cc1` was tested, and the growth inhibition call was “inactive”.
For `C[C@H]1CN([C@@H](C)CO)C(=O)c2cc(NC(=O)Nc3cccc4ccccc34)ccc2O[C@@H]1CN(C)CC1CCCCC1`, the growth inhibition call was “inactive”.
With `COc1ccc(S(=O)(=O)Nc2cccc3c2O[C@@H](CN(C)CC2CC2)[C@@H](C)CN([C@@H](C)CO)C3=O)cc1` the growth inhibition call was “inactive”.
With `CCOC(=O)N(C)C[C@@H]1OCc2cnnn2CCCC(=O)N([C@H](C)CO)C[C@H]1C` the growth inhibition call was “inactive”.
For `O=C(C[C@@H]1CC=CCC[C@H](Cc2ccc(F)cc2)C(=O)OCCNC1=O)N[C@@H](CO)Cc1ccccc1`, the growth inhibition call was “inactive”.
For `O=C(CN1CCOCC1)NCC[C@@H]1CC[C@@H](NC(=O)Cc2ccccn2)[C@@H](CO)O1`, the growth inhibition call was “inactive”.
With `COc1ccc(NC(=O)N(C)C[C@H]2OCCCC[C@H](C)Oc3ccc(NS(=O)(=O)c4ccc(Cl)cc4)cc3C(=O)N([C@H](C)CO)C[C@@H]2C)cc1` the growth inhibition call was “inactive”.
In the case of `CCS(=O)(=O)Nc1ccc2c(c1)C(=O)N(C)[C@@H]1CC[C@@H](CC(=O)NCCCN3CCOCC3)O[C@@H]1CO2`, the growth inhibition call is reported as “inactive”.
For `C[C@H](CO)N1C[C@H](C)[C@@H](CN(C)C(=O)Nc2ccc3c(c2)OCO3)OCc2cn(nn2)CCCC1=O`, the growth inhibition call was “inactive”.
